Data taken from PubChem BioAssay (NCATS).
“And” between values parts separate entries of the source, which are not always exact repeats. Identical values can stand only once. Some of the results follow. Further columns of the screen follow, without active or inactive calls. The list favours compounds with an active or inconclusive main result.

Test: qHTS Assay for Lipid Storage Modulators (AID 1519)
Conditions: Drosophila S3 cells, BODIPY lipid droplet/cell ratio, laser cytometry; measured here: cell count channel max response; cells loaded with oleic acid
Method in brief: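 Cells seeded at 5,000 per well were treated with compounds over a concentration series and loaded with oleic acid (400 uM, as added). Lipid droplet fluorescence (488 nm excitation, 500-530 nm channel) was read by laser-scanning cytometry and normalized to 20 uM Triacsin C.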

Row | Compound | max response
1 | CCNc1ncc2nc(-c3cn(C)c4ccccc34)c(=O)n(Cc3ccc(F)cc3)c2n1 | 29.5%
2 | N#Cc1cccc(-c2cncnc2NCCc2cnc[nH]2)c1 | 60.3%
3 | COc1cccc(-c2nc(N(C)C)c3ccccc3n2)c1 | 43.1%
4 | COc1ccc2[nH]cc(CCNc3cc(-c4ccccc4Cl)ncn3)c2c1 | 24.6%
5 | COc1ccc(-c2nc(C(=O)N3CCN(C)CC3)sc2-c2ccc(OC)cc2)cc1 | 78.2%
6 | CN(Cc1ccco1)c1ncncc1-c1ccc2c(c1)OCO2 | 52.2%
7 | O=c1c(-c2cc(F)cc(F)c2)nc2cnc(N3CCNCC3)nc2n1Cc1ccc(F)cc1 | -65.3%
8 | CN1C(=O)CCC1c1cccnc1 (stereo not given) | 58.7% and 64.3%
9 | CN(C)c1ccc(-c2nc(-n3ccnc3)c3ccccc3n2)cc1 | -2.01%
10 | CCOc1ccc(/C=C/C(=O)c2cccs2)cc1 | 83.9%
11 | CC(=O)c1ccc[nH]1 | 8.16%
12 | COCCn1c(=O)c(-c2cc(F)cc(F)c2)nc2cncnc21 | 33.1%
13 | C[N+](C)(C)CCOC(=O)CCC(=O)OCC[N+](C)(C)C | -7.42%
14 | COc1ccc(CNc2ncncc2-c2ccccc2C)c(OC)c1 | 16.5%
15 | Cn1cnc2c(NCc3ccccc3)nc(NCCO)nc21 | 90%
16 | O=S(=O)(c1ccccc1)N1CCC2(CCN(c3ncccn3)CC2)CC1 | 22.6%
17 | COc1ccc(Oc2ncc3ncc(=O)n(CCc4ccccc4)c3n2)cc1 | 23.8%
18 | c1ccc2c(N3CCOCC3)nc(-c3ccoc3)nc2c1 | 27.5%
19 | COc1ccc(-n2c(=O)c(-c3ccc(F)cc3)nc3cnc(OC)nc32)cc1 | 13.8%
20 | CN(C)C1C(=O)C(C(N)=O)=C(O)[C@@]2(O)C(=O)C3=C(O)c4c(O)ccc(Cl)c4[C@@H](O)C3C[C@@H]12 (stereo not given in full) | -68.3%
